Results are given in words; binding and its absence hold for the method and conditions named. Some entries that bind do so weakly or less than the wild type. Tags and fused reporters may be left off the sequences shown.
Columns and labels:
Experiment in all cases: LacO/LacR tethering assay (recruitment to a LacO array in cells); mCherry-LacRnls-bait transiently transfected and held at the LacO array of U2OS 2-6-5 cells; colocalization of the GFP-tagged prey at the mCherry locus quantified; FOK1 nuclease not expressed
[1] = biological target: T1, mCherry-LacRnls-FIGNL1 amino acids 1 to 360 (human) (UniProt Q6PIW4)
T1 sequence: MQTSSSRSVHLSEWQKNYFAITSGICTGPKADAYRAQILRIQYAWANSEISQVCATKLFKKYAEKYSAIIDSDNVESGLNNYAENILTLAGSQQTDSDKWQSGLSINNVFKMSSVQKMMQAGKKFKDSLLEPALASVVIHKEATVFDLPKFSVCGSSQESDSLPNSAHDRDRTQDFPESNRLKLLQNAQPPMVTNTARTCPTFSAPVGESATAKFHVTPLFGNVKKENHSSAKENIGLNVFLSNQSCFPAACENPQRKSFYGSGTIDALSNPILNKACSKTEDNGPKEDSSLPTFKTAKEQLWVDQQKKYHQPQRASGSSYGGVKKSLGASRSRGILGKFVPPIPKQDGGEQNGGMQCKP

[2] = biological target: T2, mCherry-LacRnls-FIGNL1 D500A (human) (UniProt Q6PIW4)
T2 sequence: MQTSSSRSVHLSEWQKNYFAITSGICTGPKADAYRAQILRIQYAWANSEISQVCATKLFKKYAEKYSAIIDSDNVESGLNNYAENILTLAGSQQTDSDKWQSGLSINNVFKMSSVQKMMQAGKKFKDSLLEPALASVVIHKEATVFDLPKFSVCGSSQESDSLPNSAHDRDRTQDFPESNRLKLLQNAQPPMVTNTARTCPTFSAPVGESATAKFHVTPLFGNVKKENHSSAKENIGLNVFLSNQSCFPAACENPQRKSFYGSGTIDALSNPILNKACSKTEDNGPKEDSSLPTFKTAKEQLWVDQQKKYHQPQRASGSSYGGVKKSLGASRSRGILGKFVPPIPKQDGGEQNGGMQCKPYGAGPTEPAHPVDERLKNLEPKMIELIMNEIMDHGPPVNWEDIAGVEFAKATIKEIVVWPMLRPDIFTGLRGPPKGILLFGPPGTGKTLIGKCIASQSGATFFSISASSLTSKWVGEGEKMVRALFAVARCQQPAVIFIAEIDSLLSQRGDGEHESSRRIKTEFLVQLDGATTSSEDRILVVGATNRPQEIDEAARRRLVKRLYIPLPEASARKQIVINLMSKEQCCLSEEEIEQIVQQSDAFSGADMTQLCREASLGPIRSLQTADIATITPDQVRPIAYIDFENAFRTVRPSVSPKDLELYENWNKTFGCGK

[3] = biological target: T3, mCherry-LacRnls-FIGNL1 (human) (UniProt Q6PIW4)
T3 sequence: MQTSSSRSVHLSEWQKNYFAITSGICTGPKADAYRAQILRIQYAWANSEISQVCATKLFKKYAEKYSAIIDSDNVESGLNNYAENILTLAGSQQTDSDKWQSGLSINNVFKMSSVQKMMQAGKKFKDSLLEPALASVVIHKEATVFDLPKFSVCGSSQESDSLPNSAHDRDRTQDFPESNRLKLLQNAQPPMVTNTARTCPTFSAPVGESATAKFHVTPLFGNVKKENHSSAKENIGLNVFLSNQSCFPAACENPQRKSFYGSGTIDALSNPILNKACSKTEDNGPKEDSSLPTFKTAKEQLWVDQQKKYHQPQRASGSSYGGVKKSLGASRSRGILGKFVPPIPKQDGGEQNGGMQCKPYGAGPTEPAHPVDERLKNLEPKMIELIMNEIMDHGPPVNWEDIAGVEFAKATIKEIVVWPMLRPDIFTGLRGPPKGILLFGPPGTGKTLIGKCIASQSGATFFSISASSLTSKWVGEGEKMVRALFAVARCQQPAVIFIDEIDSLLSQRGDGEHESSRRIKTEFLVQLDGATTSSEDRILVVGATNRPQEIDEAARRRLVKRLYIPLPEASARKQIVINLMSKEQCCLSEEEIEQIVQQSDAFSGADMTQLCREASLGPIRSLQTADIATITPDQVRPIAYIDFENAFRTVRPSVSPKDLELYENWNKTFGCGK

[4] = biological target: T4, mCherry-LacRnls-FIGNL1 ∆FRBD (human) (UniProt Q6PIW4)
T4 sequence: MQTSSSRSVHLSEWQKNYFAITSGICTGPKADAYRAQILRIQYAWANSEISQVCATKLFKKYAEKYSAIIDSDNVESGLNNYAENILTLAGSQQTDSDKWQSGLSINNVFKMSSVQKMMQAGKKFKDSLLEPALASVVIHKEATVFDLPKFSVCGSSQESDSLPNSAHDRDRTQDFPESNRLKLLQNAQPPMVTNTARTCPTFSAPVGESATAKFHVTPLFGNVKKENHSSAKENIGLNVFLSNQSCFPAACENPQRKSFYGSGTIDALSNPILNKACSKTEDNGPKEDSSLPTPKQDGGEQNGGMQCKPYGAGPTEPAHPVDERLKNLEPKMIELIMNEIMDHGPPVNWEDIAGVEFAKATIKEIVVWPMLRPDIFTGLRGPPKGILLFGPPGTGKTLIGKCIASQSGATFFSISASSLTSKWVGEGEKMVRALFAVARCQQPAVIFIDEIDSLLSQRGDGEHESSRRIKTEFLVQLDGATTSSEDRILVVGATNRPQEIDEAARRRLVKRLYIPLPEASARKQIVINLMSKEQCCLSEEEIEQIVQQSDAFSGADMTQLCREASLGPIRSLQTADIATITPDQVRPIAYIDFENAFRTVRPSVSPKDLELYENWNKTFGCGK

- binding [1]: binds
- binding [2]: binds
- binding [3]: binds
- binding [4]: binds
B1: GFP-FIRRM full length (protein, UniProt Q9NSG2 1-853)
chain: MFLPHMNHLTLEQTFFSQVLPKTVKLFDDMMYELTSQARGLSSQNLEIQTTLRNILQTMVQLLGALTGCVQHICATQESIILENIQSLPSSVLHIIKSTFVHCKNSESVYSGCLHLVSDLLQALFKEAYSLQKQLMELLDMVCMDPLVDDNDDILNMVIVIHSLLDICSVISSMDHAFHANTWKFIIKQSLKHQSIIKSQLKHKDIITSLCEDILFSFHSCLQLAEQMTQSDAQDNADYRLFQKTLKLCRFFANSLLHYAKEFLPFLSDSCCTLHQLYLQIHSKFPPSLYATRISKAHQEEIAGAFLVTLDPLISQLLTFQPFMQVVLDSKLDLPCELQFPQCLLLVVVMDKLPSQPKEVQTLWCTDSQVSETTTRISLLKAVFYSFEQCSGELSLPVHLQGLKSKGKAEVAVTLYQHVCVHLCTFITSFHPSLFAELDAALLNAVLSANMITSLLAMDAWCFLARYGTAELCAHHVTIVAHLIKSCPGECYQLINLSILLKRLFFFMAPPHQLEFIQKFSPKEAENLPLWQHISFQALPPELREQTVHEVTTVGTAECRKWLSRSRTLGELESLNTVLSALLAVCNSAGEALDTGKQTAIIEVVSQLWAFLNIKQVADQPYVQQTFSLLLPLLGFFIQTLDPKLILQAVTLQTSLLKLELPDYVRLAMLDFVSSLGKLFIPEAIQDRILPNLSCMFALLLADRSWLLEQHTLEAFTQFAEGTNHEEIVPQCLSSEETKNKVVSFLEKTGFVDETEAAKVERVKQEKGIFWEPFANVTVEEAKRSSLQPYAKRARQEFPWEEEYRSALHTIAGALEATESLLQKGPAPAWLSMEMEALQERMDKLKRYIHTLG

Reference: publication PMC10411901, “FIRRM cooperates with FIGNL1 to promote RAD51 disassembly during DNA repair” (Science Advances, 2023)
